Measurements reported in the RNAGym collection of RNA variant scans (doi:10.7554/elife.90254).
Read counts are not given, so values of variants with three or more changes are uncertain.

B1: OR4K15 (parent)
chain: GUUAACGGUCAUAGGCCAUGGAAACUAGGAGCACCAUUUCGCUGCCAGUGAAGAAAUGAACAAAGAAAAUCUGGGCCAGGCAGGCAUCAAAAGAAAUAGUCUUGCGCUCAACCAGAAAGUCUGUAAUCAUUUUAAGGGUA

Variants of: B1
Assay: self-cleavage, relative activity (ratio to wild type); higher = more cleavage; in vitro, sequencing; the parent is a self-cleaving ribozyme

Variant	self-cleavage
G74A A86G U108C A118G	0
G74A C109U A135G	0.08
G74A G115U U139A	0.04
G74A U102C U139A	0.24
G74C U100C U120C	0.22
G74U A118G U131C	0.02
G74U G84A A117G	0.17
G75A G79C A95G A140G	0.02
G75A U100C A117G U120A U130C U131C A140U	0.1
G75C A125G A134G	0.01
C76G A78C U87C U127C	0.06
C76U A96U A118G U120C U133C	0.03
C77A C128A U133C	0.84
C77U A78G A116G U131C	0.03
C77U A91G A98G	0.7
C77U C109G A110U	0.02
A78C A94G U108C	0.01
A78C U97C A117G	0.22
A78G A82U A111U U133A	0.03
A78G A86G U87C A118U	0.05
A78G A86G U132A	0.16
A78G A89G C109U	0.08
A78G A89G U100C	0.44
A78G A91G U122C	0.15

Variant	self-cleavage
A78G A91G U130A	0.06
A78G A92G G106A	0.02
A78G A94G A126G	0.11
A78G A94U U103C U132G	0.05
A78G A95G U132C	0.15
A78G A96G U103A	0.08
A78G A96G U103C U130C	0.07
A78G A98G U108C A110G	0.02
A78G A114G A134G	0.13
A78G A116G U122A	0.12
A78G A118G A135U	0.17
A78G A118G U127C	0.11
A78G A125G U130C	0.06
A78G G83A U103C A116U	0.03
A78G G83A U108A	0.04
A78G G104A U132C	0.04
A78G U87A A89G U102C	0.31
A78G U87C A134G	0.16
A78G U100C A110G	0.06
A78G U100C A125G A129G G138U	0.05
A78G U100C C113U	0.08
A78G U108A A116G U122C	0
A78G U108C A117G	0
A78G U108C A117G U120C U124C	0

Variant	self-cleavage
A78G U120C A126G	0.21
A78G U127C U131C A135G	0.11
A78U A82G A111G	0.05
A78U A82G A126G	0.14
A78U A82G G137A	0.08
A78U A82G U124A	0.09
A78U A86U G99A	0.13
A78U A90G A98G	0.04
A78U A94G C113U	0.03
A78U A96G U108A A117G	0.01
A78U A110G U122C	0.04
A78U A111G U130C	0.01
A78U A114C A126G	0.01
A78U A118G A125G A129G	0
A78U C107A A117G U131C	0
A78U U100C A111G A114G	0.01
A78U U103C U122C U132C	0.09
A78U U122A U139C	0.27
A78U U122C U132G	0.05
G79A A114U U122C	0
G79A A116G U139A	0.09
G79A U102C U120C	0.07
G80A A94U U102C U132A	0.66
G80C U108C A114U U122C	0.04

Variant	self-cleavage
G80U A91C A110G	0.03
G80U A96G G123A A125G	0.03
C81A A96U U103C	0.12
C81U A96G U108G	0.02
C81U U100C A114U	0.02
A82C U87C A140G	0.19
A82G A86U A110G	0.12
A82G A90G A94G A117G	0.09
A82G A94G A126G	0.17
A82G A96G A118G U124C U139C	0.48
A82G A111G A129U	0.02
A82G A116G A117G U133C	0.12
A82G A116G G138U	0.42
A82G A117G U120C	0.25
A82G C109U U133A	0.17
A82G G83A A125U	0.37
A82G U87A A126C	0.46
A82G U87C A96U G137U	0.43
A82G U97A A98G	0.21
A82G U102A A111G	0.03
A82G U103A U120A U127C U131C U139C	0.11
A82G U103C A117G	2.26
A82G U108C A111U	0.01
A82U A91G A117G	0.12

Variant	self-cleavage
A82U A96U C105U A111G A135C	0
A82U A111G U130C	0.01
A82U A117G U132C	0.03
A82U A118G U120A	0.13
A82U A118G U132C	0.02
A82U U87C A90C	0.15
A82U U100C A116U	0.05
A82U U127C A129G	0.04
A82U U127C U133C A134G	0.1
G83A A117G U133C	1.79
G83U A92U U124C	0.37
G84A A95G A117G	2.89
G84U A117G A140G	0.11
G84U A126U U127C	0.05
C85A A94C A134G	1.61
C85A U87C U103A A117G G123U	0.2
C85U A86G A94G U108A	0.01
C85U A86G C121G	0.45
C85U A90G A91G U100A A110G A129G	0
C85U A90G U122C	0.72
A86C U120C U127C	0.18
A86G A89G A90G A126G	1.18
A86G A89G A114U	0.05
A86G A89G U139C	0.81

Variant	self-cleavage
A86G A90G A96G A126G	0.61
A86G A91G A117G	0.11
A86G A92G A96G U100C	1.99
A86G A94G A129G	0.73
A86G A95G A114G A126G	0.46
A86G A95G U131C	1.67
A86G A96G U130C	1.08
A86G A98G G106A	0.01
A86G A110U A118G	0.79
A86G U87A A91G U127C U130C	0.07
A86G U87C U100A G137A	0.17
A86G U100C U124C U133A	2.54
A86G U103C A114C	0.02
A86G U120C A125G	0.13
A86U A90G A135G	1.53
A86U A94G U102C	0.52
A86U A95G U108A	0.05
A86U A110G G136U	0.13
A86U U87C U122A U131C U132C	0.7
U87A A90G U103C A140G	1.18
U87A A92U A116G U132C	1.28
U87A A92U U120C U133C	1.17
U87A A94G U127C	1.8
U87A A111U A117G	0.02

Variant	self-cleavage
U87A U120A U132C	0.64
U87C A92U U102G	0.12
U87C A94G A110G A116G U124C	0.06
U87C A96G U103C	2.17
U87C A96U G138U	1.61
U87C A126G U139A	1.9
U87C A126U A134U	0.42
U87C A126U A140G	0.82
U87C C88U A117G	2.76
U87C G106A U122A G138U	0
U87C G115A U132C	0.04
U87C G138A A140G	0.91
U87C U100C A116G	0.51
U87C U100C U103A G137U	1.6
U87C U100C U130C	2.41
U87C U100C U133C	2.47
U87C U102C U132C	1.37
U87C U103A A117G A135U	0.81
U87C U108C A126G	0.01
U87C U108C U122C	0.02
U87C U122G A134G	2.87
U87G C105U U122C G123A	0.01
U87G U108C U127C U130C	0
